The full ranking holds about 33,000 sequences; the median of “E-score (-0.5 to 0.5)” is about -0.043, and the highest 2% start at about 0.37. The list shows a part of the results.
molecular target: T1, Upc2 (UniProt Q12151); experiment: PBM E-score (8-mer binding enrichment) (E-score (-0.5 to 0.5)); higher = stronger / more preferred TF binding; most listed sequences are background and not binding sites; details: protein concentration: 200 nM; construct: GST-full length
T1 sequence: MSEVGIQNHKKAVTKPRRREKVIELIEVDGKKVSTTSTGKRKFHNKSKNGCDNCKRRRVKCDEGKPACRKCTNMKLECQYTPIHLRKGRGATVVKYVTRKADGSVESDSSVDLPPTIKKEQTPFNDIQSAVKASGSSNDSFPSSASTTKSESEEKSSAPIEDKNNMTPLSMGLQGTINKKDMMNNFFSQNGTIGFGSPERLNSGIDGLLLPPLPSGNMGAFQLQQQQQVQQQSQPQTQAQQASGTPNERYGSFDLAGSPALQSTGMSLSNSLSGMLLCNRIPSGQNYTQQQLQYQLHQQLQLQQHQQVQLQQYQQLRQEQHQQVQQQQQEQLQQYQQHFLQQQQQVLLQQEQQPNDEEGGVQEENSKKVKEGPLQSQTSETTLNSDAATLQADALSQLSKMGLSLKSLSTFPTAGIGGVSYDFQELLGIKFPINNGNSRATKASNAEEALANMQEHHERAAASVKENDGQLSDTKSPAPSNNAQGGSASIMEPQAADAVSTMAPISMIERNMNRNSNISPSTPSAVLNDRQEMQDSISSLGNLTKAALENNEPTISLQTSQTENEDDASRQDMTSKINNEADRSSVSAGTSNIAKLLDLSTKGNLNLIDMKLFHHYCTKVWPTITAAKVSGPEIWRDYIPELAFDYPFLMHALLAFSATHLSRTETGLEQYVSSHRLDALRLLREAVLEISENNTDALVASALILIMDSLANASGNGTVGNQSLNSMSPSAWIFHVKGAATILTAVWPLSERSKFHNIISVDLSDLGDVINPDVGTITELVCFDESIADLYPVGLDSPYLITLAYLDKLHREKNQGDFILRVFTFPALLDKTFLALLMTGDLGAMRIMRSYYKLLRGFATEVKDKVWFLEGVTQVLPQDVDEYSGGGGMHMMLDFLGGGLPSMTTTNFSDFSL
Procedure: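 Universal 'all 10-mer' protein binding microarrays (Agilent AMADID 015681) probed with GST-tagged S. cerevisiae TFs (full-length or DBD) made by in vitro transcription/translation (PURExpress), about 100-200 nM. Bound TF was detected with fluorescent anti-GST. Each ungapped 8-mer (which stands for itself and its reverse complement) is scored by the PBM enrichment score (E-score), a modified Wilcoxon-Mann-Whitney statistic from -0.5 to +0.5, computed with the Universal PBM Analysis Suite. Scale: above 0.35 generally sequence-specific binding.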

Sequence | PBM E-score
CGGTCATC | -0.0276
GGATTTAC | 0.00936
CCCCACGG | -0.0929
GAATCTCA | -0.11
CTCAGATC | -0.131
GAAGGTAA | 0.0165
ACGTGCGG | 0.033
CTCTTCTA | -0.0366
ATATCCTA | -0.248
ACTAATGC | -0.0495
AAGAACTG | -0.0756
ACGCCGTC | -0.00209
TGTGGGAA | -0.121
CCGACCTC | 0.00754
CTCAGACA | -0.0805
AATCATTG | -0.147
AGCCTGAT | -0.204
GGCGTCGA | -0.0727
ATACGCAC | 0.334
ATCGTCCA | -0.25
ACGGAGTA | 0.156
AGACATTG | -0.211
TACTGAAA | 0.0835
GGCTAAGA | -0.18
AACCAGTT | 0.0333

Sequence | PBM E-score
AGCGCCGG | -0.0104
CGTACACC | 0.382
GCCCCGAC | -0.0884
GGTTATGA | 0.00464
AAGCTCCC | -0.109
CAGGCTCA | -0.089
GGTGATCA | -0.155
TATTATAA | -0.00035
AGATGTCA | -0.221
ACGTACAC | 0.297
ACGCGCGT | 0.263
AAAGGGCT | -0.235
AGCCTCGG | 0.0155
AGGCCACT | -0.203
TCGCAGAA | -0.089
AATAGTCT | -0.0362
ATGTCGGC | -0.205
TACCAAGA | 0.0928
CCCCAGCA | -0.179
GCAGTTGA | -0.152
AACTGCCC | -0.152
ACAGTTTC | -0.0564
CCAAAACG | 0.114
TACACCAA | -0.0956
CCACAGGA | -0.218

Sequence | PBM E-score
AAGAGCCC | -0.19
AGTCCAAA | -0.172
ACTTCAAT | -0.0198
ATTGTTGC | -0.0274
CTGGCGTC | -0.0985
CACCCGAC | 0.0618
ATTCCCTA | -0.203
AAGCGCCA | -0.163
CCTTTTCA | -0.115
GAGCCATC | -0.0969
CCACGAAA | -0.0902
CCCTCCCG | -0.0429
CGACTCCG | -0.0146
TGGGCAAA | -0.165
AAATAATC | 0.0127
ACGCGTTC | 0.174
AAAGCGCA | -0.129
CTAAAATA | -0.00736
CTTCCCCC | -0.269
ATGCATAC | 0.197
CATGCCAA | -0.0735
ATGAAAGA | -0.033
AACTCCCG | 0.212
TTACTCAA | 0.0201
ACTCGGCC | -0.048

Sequence | PBM E-score
ATGTAGTG | -0.232
GTTATAAA | 0.0516
CTCACAGA | -0.11
AGTTGCAG | -0.199
GTTAGTAA | 0.1
AAGACTTG | -0.00965
AGTGGTGA | -0.163
AGCCATAG | -0.124
ACAAAACA | 0.00904
CCGGACGC | 0.0445
CCTTTACC | -0.191
CGATTGCG | -0.0045
ACTTGATA | -0.0769
CTGCGCCC | -0.274
AATGCTAG | -0.178
ATGTGGCA | -0.161
AGTTCGCC | -0.0959
CGGACGGC | -0.123
AAGCGATA | 0.205
AAGTAATG | -0.0743
GTCAATAA | 0.0324
TATGATGA | -0.0393
ACCTTATG | -0.189
CGCTACAA | 0.0263
CGGAGATC | -0.111

Sequence | PBM E-score
CAACTCTA | -0.285
GACCCGTA | 0.318
CTGAGTGC | -0.172
CTACTAAA | 0.00659
CTTGGTTA | -0.084
GCGGGCGA | -0.0924
AAGTTTTG | -0.0401
CGAAACGA | 0.447
CAGTCGGA | -0.016
AGATCTAC | 0.0981
ATAGATGC | 0.0325
GTAAAGCA | 0.223
ATAAATAC | 0.198
CCGGGCCA | -0.305
CCGCCTAA | 0.034
GCTGCCGA | -0.0539
GTACTCTA | -0.0205
ACAACGCT | -0.0148
AGTAGGTA | -0.0576
CTTTCGCC | -0.118
GAACACTC | 0.217
GATCGAAA | 0.153
GAAGATTC | -0.0218
AAGAGTTC | 0.0025
GAAAGTTC | -0.0894

Sequence | PBM E-score
ATAAGGTA | -0.0315
TCCTTCGA | -0.089
AGCTTGGA | -0.139
ACAGGTCC | -0.175
AATATCAA | -0.0756
CGGTAGAC | 0.105
AATTGCGA | 0.0229
AACGTCCT | 0.137
AGACAAGA | -0.0842
TAACACAA | 0.0323
GAATGTAC | 0.0753
CCCCATTA | -0.164
ATTTACAC | -0.0758
CCGGCCAG | -0.188
AGATCTTC | -0.0969
GATAGAAC | 0.0666
ATTGCTGA | -0.0921
ATCCGGAC | -0.132
CTGTAATA | 0.0367
ATAAAAAT | -0.05
CCCGGGGA | -0.25
CTCGAGCC | 0.135
AAGAACGC | 0.0594
ATTGGTTG | -0.209
ATACTAGC | 0.0623

Sequence | PBM E-score
GATGACTA | -0.0763
CAATGTAC | 0.107
GGATCAAC | -0.104
GATTTCCC | 0.039
CGGCTAAC | 0.035
ATTAGGAA | -0.00917
AACGTTAA | 0.264
AGCGGACT | -0.201
ACCTTGTA | 0.0207
CACGAAAA | 0.134
GATCCCTA | -0.041
GTCGGTGA | -0.0693
AGGCCTAA | -0.137
AACTCCCA | -0.11
ACACCTTG | -0.141
CCCCTGTC | -0.278
CCGTTTTC | 0.00941
ATAATATG | 0.0376
CGCTATCA | 0.0106
GGATCGAA | 0.211
CAACCGTA | 0.295
AAATAGCG | 0.0353

Source: the supplement of paper PMC3334620
